{"source": "patent US20240218065A1", "about": "(SHENGHE CHINA BIOPHARMACEUTICAL, published 2024)", "binders": {"B1": {"name": "PD1 and IL-15 cytokine fusion protein (other)", "chain 1": "QVQLVQSGVEVKKPGASVKVSCKASGYTFTNYYMYWVRQAPGQGLEWMGGINPSNGGTNFNEKFKNRVTLTTDSSTTTAYMELKSLQFDDTAVYYCARRDYRFDMGFDYWGQGTTVTVSSASTKGPSVFPLAPCSRSTSESTAALGCLVKDYFPEPVTVSWNSGALTSGVHTFPAVLQSSGLYSLSSVVTVPSSSLGTKTYTCNVDHKPSNTKVDKRVGGGGSGGGGS[about 120 residues not written out]GGGGSGGGGS[human IgG4 Fc with S228P T366W (EU numbers) not written out]", "chain 2": "QVQLVQSGVEVKKPGASVKVSCKASGYTFTNYYMYWVRQAPGQGLEWMGGINPSNGGTNFNEKFKNRVTLTTDSSTTTAYMELKSLQFDDTAVYYCARRDYRFDMGFDYWGQGTTVTVSSASTKGPSVFPLAPCSRSTSESTAALGCLVKDYFPEPVTVSWNSGALTSGVHTFPAVLQSSGLYSLSSVVTVPSSSLGTKTYTCNVDHKPSNTKVDKRVGGGGSGGGGSITCPPPMSVEHADIWVKSYSLYSRERYICNSGFKRKAGTSSLTECVLNKATNVAHWTTPSLKCIRGGGGS[human IgG4 Fc with S228P Y407A (EU numbers) not written out]", "chain 3": "EIVLTQSPATLSLSPGERATLSCRASKGVSTSGYSYLHWYQQKPGQAPRLLIYLASYLESGVPARFSGSGSGTDFTLTISSLEPEDFAVYYCQHSRDLPLTFGGGTKVEIKRTVAAPSVFIFPPSDEQLKSGTASVVCLLNNFYPREAKVQWKVDNALQSGNSQESVTEQDSKDSTYSLSSTLTLSKADYEKHKVYACEVTHQGLSSPVTKSFNRGEC", "notes": "also called the control"}}, "key": {"[1]": {"target": "T1, IL-2Rβ (Acro, cat: CD2-H5221) (UniProt P14784 27-239)", "T1 construct": "Bought protein coated on the ELISA plate; also called IL-2Rβ receptor; IL-2Rβ protein", "T1 sequence (looked up)": "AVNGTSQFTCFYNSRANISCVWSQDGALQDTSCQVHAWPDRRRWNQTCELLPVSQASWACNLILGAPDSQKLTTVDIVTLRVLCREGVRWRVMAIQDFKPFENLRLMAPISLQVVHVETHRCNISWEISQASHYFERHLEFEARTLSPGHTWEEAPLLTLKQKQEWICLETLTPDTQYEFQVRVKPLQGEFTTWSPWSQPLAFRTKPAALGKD", "assay": "ELISA: IL-2Rβ coated at 3 µg/mL, antibody titrated 3-fold from 20 µg/mL, HRP goat anti-human IgG-Fc, OD450-OD570", "protocol": "(§1) IL-2Rβ (Acro, cat: CD2-H5221) receptor was diluted to 3 μg/mL with PBS buffer at pH 7.4, added into the 96-well ELISA plate at 100 μL per well, coated overnight at 4° C., and blocked with 1% BSA blocking solution for 1 hour. The plate was washed 3 times with PBST, and the constructed expressing antibody was diluted to 20 μg/mL with 0.5% BSA sample diluent as the starting concentration, and then diluted by 3-fold gradient (11 gradients in total). A negative control (blank well and IgG1 isotype control) and a positive control were set, and the positive control was a PD1 and IL-15 cytokine fusion protein (sequence consists of SEQ ID No. 25, SEQ ID No. 26, and SEQ ID No. 27), and incubated at 37° C. for 1 h at 100 μL per well. […] The absorbance value of each well in the 96-well plate was determined by selecting the wavelength of 450 nm and the reference wavelength of 570 nm on a multifunctional enzyme marker, and the absorbance value (OD)=OD₄₅₀ₙₘ−OD₅₇₀ₙₘ. The logarithm of the concentration of the constructed antibody was taken as the abscissa, and the measured absorbance value of each well was taken as the ordinate, and the Sigmoidaldose-response (Variable Slope) method (GraphPad Prism software, GraphPad Software, San Diego, California) was selected for nonlinear regression to obtain the binding curve of the target antibody to the IL-2Rβ receptor."}, "[2]": {"target": "T1, IL-2Rβ (Acro, cat: CD2-H5221)", "assay": "ELISA: IL-2Rβ coated at 3 µg/mL, antibody titrated 3-fold from 20 µg/mL, HRP goat anti-human IgG-Fc, OD450-OD570", "protocol": "as §1", "remark": "listed apart in the source"}}, "note": "Where two headings read alike, the source gives them in different places.", "data": [{"binder": "B1", "values": [{"measurement": "EC50 (read off the curve)", "setting": "[1]", "result": "~0.7", "unit": "µg/mL"}, {"measurement": "EC50 (read off the curve)", "setting": "[2]", "result": "~0.7", "unit": "µg/mL"}]}]}
